Test systems include 501Mel; A101D; A2058; A375.
What all share (test): cell count relative to DMSO control; melanoma cells; higher = more viable cells
Holding throughout (conditions): library dose: standard library concentration; 72 h

This is one part of the list. Many values rest on one well or one pass, so single values are uncertain.
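Further: cells treated in 1,536-well plates, then fixed and DAPI-stained, with nuclei counted from automated high-throughput microscope images.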

Take `CC(C)C[C@H](NC(=O)[C@H](Cc1ccccc1)NC(=O)c1cnccn1)B(O)O` [Bortezomib] + COc1ccc(-c2ccc3c(N4CCOCC4)nc(N4C[C@@H](C)O[C@@H](C)C4)nc3n2)cc1CO [KU0063794] (first compound 0.005 µM, partner dose 0.1 µM): the cell count with 501Mel was found to be 25.1%; with A101D it was 11.6%; in the experiment on A2058, 35.2%; in the experiment on A375, 117%.
As for `Cc1cc(Nc2cc(N3CCN(C)CC3)nc(/C=C/c3ccccc3)n2)n[nH]1` + CN(C)S(=O)(=O)c1ccc2c(c1)/C(=C/c1cc3c([nH]1)CCCC3)C(=O)N2 [SU6656] (first compound 0.2 µM, partner dose 2 µM), the cell count in the experiment with A101D came out at 47.2%; in the experiment with A2058 it was 73.7%; with A375, 88.9%.
Consider `COc1ccc(C2=N[C@@H](c3ccc(Cl)cc3)[C@@H](c3ccc(Cl)cc3)N2C(=O)N2CCNC(=O)C2)c(OC(C)C)c1` [Nutlin-3] + O=C(Nc1ccccc1)c1cc([N+](=O)[O-])ccc1Cl [GW9662] (first compound 0.5 µM, partner dose 10 µM), for which the cell count amounted to 71.6% in the experiment on 501Mel, 56.7% with A101D, 71.9% in the experiment on A2058 and 115% with A375.
`CC(C)C[C@H](NC(=O)[C@H](Cc1ccccc1)NC(=O)c1cnccn1)B(O)O` [Bortezomib] + Cn1cncc1[C@@](N)(c1ccc(Cl)cc1)c1ccc2c(c1)c(-c1cccc(Cl)c1)cc(=O)n2C [tipifarnib] (first compound 0.005 µM, partner dose 0.05 µM): the results for the cell count in the experiment on A101D, with A2058 and in the experiment with A375 were 9.43%, 10.8% and 92.8%, respectively.
Regarding `Cc1cc(Nc2cc(N3CCN(C)CC3)nc(/C=C/c3ccccc3)n2)n[nH]1` + O=C(O)C(=O)Nc1sc2c(c1C(=O)O)CCNC2 [TCS401] (first compound 0.2 µM, partner dose 8.33333 µM), the cell count with 501Mel is 131%; with A101D, 82.6%; in the experiment on A2058 it was 90.3%; with A375, 179%.
Regarding `Cc1cc(Nc2cc(N3CCN(C)CC3)nc(/C=C/c3ccccc3)n2)n[nH]1` + Clc1ccc(Nc2nnc(Cc3ccncc3)c3ccccc23)cc1 [vatalanib] (first compound 0.2 µM, partner dose 10 µM), the cell count turned out to be 86.1% with A101D, 76.2% in the experiment with A2058 and 96.3% in the experiment with A375.
As to `Cn1c(=O)n(-c2ccc(C(C)(C)C#N)cc2)c2c3cc(-c4cnc5ccccc5c4)ccc3ncc21` + CCc1ccc(CCOc2ccc(CC3SC(=O)NC3=O)cc2)nc1 [pioglitazone] (first compound 0.02 µM, partner dose 10 µM), the cell count was 86.3% in the experiment with 501Mel, 83.8% in the experiment on A101D, 77% with A2058 and 88.1% in the experiment with A375.
Consider `COc1ccc(C2=N[C@@H](c3ccc(Cl)cc3)[C@@H](c3ccc(Cl)cc3)N2C(=O)N2CCNC(=O)C2)c(OC(C)C)c1` [Nutlin-3] + O=S(=O)(c1ccccc1)N(CC(F)(F)F)c1ccc(C(O)(C(F)(F)F)C(F)(F)F)cc1 [T0901317] (first compound 0.5 µM, partner dose 7 µM), for which the cell count in the experiment on 501Mel was 50%; in the experiment with A101D it was 72.5%; in the experiment with A2058, 67.1%; in the experiment with A375, 85.7%.
With `Cc1cn(-c2cc(NC(=O)c3ccc(C)c(Nc4nccc(-c5cccnc5)n4)c3)cc(C(F)(F)F)c2)cn1` [nilotinib] + COC(=O)c1sccc1S(=O)(=O)Nc1ccc(Nc2ccccc2)cc1OC [GSK0660] (first compound 1 µM, partner dose 5 µM), the cell count in the experiment on 501Mel worked out at 111%; in the experiment on A101D, 86.8%; in the experiment on A2058, 115%; in the experiment on A375, 110%.
In the case of `Cc1cc(Nc2cc(N3CCN(C)CC3)nc(/C=C/c3ccccc3)n2)n[nH]1` + COc1cc(N2CCC(N3CCN(C)CC3)CC2)ccc1Nc1ncc(Cl)c(Nc2ccccc2S(=O)(=O)C(C)C)n1 [NVP-TAE684] (first compound 0.2 µM, partner dose 0.4 µM), the cell count in the experiment with 501Mel was determined as 77%; in the experiment with A101D it was 89%; with A2058, 55.7%; with A375 it was 77.7%.
Regarding `CC(C)C[C@H](NC(=O)[C@H](Cc1ccccc1)NC(=O)c1cnccn1)B(O)O` [Bortezomib] + Clc1ccc(Nc2nnc(Cc3ccncc3)c3ccccc23)cc1 [vatalanib] (first compound 0.005 µM, partner dose 10 µM), the results for the cell count in the experiment with A101D, with A2058 and in the experiment with A375 were 14.3%, 9.91% and 72.9%, respectively.
Regarding `Cn1c(=O)n(-c2ccc(C(C)(C)C#N)cc2)c2c3cc(-c4cnc5ccccc5c4)ccc3ncc21` + COc1cc2ncnc(Nc3ccc(Oc4ccccc4)cc3)c2cc1OC [SrcI1] (first compound 0.02 µM, partner dose 10 µM), the cell count stood at 45.6% in the experiment on 501Mel, 64.7% in the experiment with A101D, 45.3% with A2058 and 93.2% with A375.
With `Cc1cc(Nc2cc(N3CCN(C)CC3)nc(/C=C/c3ccccc3)n2)n[nH]1` + c1cc(-c2cnn3cc(-c4ccc(OCCN5CCCCC5)cc4)cnc23)ccn1 [Dorsomorphin] (first compound 0.2 µM, partner dose 2 µM), the cell count amounted to 41% in the experiment with 501Mel, 68.3% in the experiment on A101D, 45.1% in the experiment on A2058 and 73.9% in the experiment on A375.
On to `COc1ccc(C2=N[C@@H](c3ccc(Cl)cc3)[C@@H](c3ccc(Cl)cc3)N2C(=O)N2CCNC(=O)C2)c(OC(C)C)c1` [Nutlin-3] + Oc1nc(-c2ccc(C(F)(F)F)cc2)nc2c1CSCC2 [XAV939] (first compound 0.5 µM, partner dose 10 µM), for which the cell count in the experiment with 501Mel was determined as 93.1%; in the experiment with A101D it was 75.9%; in the experiment with A2058 it was 74.6%; in the experiment with A375, 76.9%.
Consider `COc1ccc(C2=N[C@@H](c3ccc(Cl)cc3)[C@@H](c3ccc(Cl)cc3)N2C(=O)N2CCNC(=O)C2)c(OC(C)C)c1` [Nutlin-3] + Nc1cccc2c1CN(C1CCC(=O)NC1=O)C2=O [lenalidomide] (first compound 0.5 µM, partner dose 5 µM), for which the values for the cell count in the experiment with A101D, in the experiment on A2058 and with A375 were 67.3%, 122% and 93.1%, respectively.
Consider `Cc1cn(-c2cc(NC(=O)c3ccc(C)c(Nc4nccc(-c5cccnc5)n4)c3)cc(C(F)(F)F)c2)cn1` [nilotinib] + OCc1c[nH]c2ccccc12 [Indole-3-carbinol] (first compound 1 µM, partner dose 4 µM), for which the cell count with A101D came to 128%; with A2058, 120%; in the experiment on A375, 158%.
Taken in the same sequence, the figures for `Cc1cc(Nc2cc(N3CCN(C)CC3)nc(/C=C/c3ccccc3)n2)n[nH]1` + CS(=O)(=O)CCNCc1ccc(-c2ccc3ncnc(Nc4ccc(OCc5cccc(F)c5)c(Cl)c4)c3c2)o1 [lapatinib] (first compound 0.2 µM, partner dose 4 µM) were 61.6%, 79.9% and 144%.
`Cc1cn(-c2cc(NC(=O)c3ccc(C)c(Nc4nccc(-c5cccnc5)n4)c3)cc(C(F)(F)F)c2)cn1` [nilotinib] + C[C@]1(O)C[C@@H](c2nc(-c3ccc4ccc(-c5ccccc5)nc4c3)c3c(N)nccn32)C1 [OSI906] (first compound 1 µM, partner dose 2 µM): the cell count in the experiment with A101D is 78.1%; in the experiment on A2058, 91.5%; in the experiment on A375 it was 99.3%.
For the molecule `COc1ccc(C2=N[C@@H](c3ccc(Cl)cc3)[C@@H](c3ccc(Cl)cc3)N2C(=O)N2CCNC(=O)C2)c(OC(C)C)c1` [Nutlin-3] + Cc1cc(N2CCOCC2)cc2[nH]c(-c3c(NC[C@@H](O)c4cccc(Cl)c4)cc[nH]c3=O)nc12 [BMS536924] (first compound 0.5 µM, partner dose 1 µM), the cell count was determined as 84.6% with A101D, 94.6% in the experiment on A2058 and 80.3% with A375.
For the molecule `Cc1cc(Nc2cc(N3CCN(C)CC3)nc(/C=C/c3ccccc3)n2)n[nH]1` + CC(C)C[C@H](NC(=O)[C@H](Cc1ccccc1)NC(=O)c1cnccn1)B(O)O [Bortezomib] (first compound 0.2 µM, partner dose 0.005 µM), the cell count in the experiment on A101D is 15.4%; in the experiment with A2058, 12.3%; in the experiment with A375, 80%.
In the same order, the values of `COc1ccc(C2=N[C@@H](c3ccc(Cl)cc3)[C@@H](c3ccc(Cl)cc3)N2C(=O)N2CCNC(=O)C2)c(OC(C)C)c1` [Nutlin-3] + C[C@@H](Oc1cc(-c2cnn(C3CCNCC3)c2)cnc1N)c1c(Cl)ccc(F)c1Cl [Crizotinib] (first compound 0.5 µM, partner dose 1 µM) are 69.4%, 58.2% and 53.9%.
In the same order, the values of `Cc1cn(-c2cc(NC(=O)c3ccc(C)c(Nc4nccc(-c5cccnc5)n4)c3)cc(C(F)(F)F)c2)cn1` [nilotinib] + CC(=O)c1c(C)c2cnc(Nc3ccc(N4CCNCC4)cn3)nc2n(C2CCCC2)c1=O [palbociclib] (first compound 1 µM, partner dose 0.2 µM) are 68%, 126% and 106%.
For `COc1ccc(C2=N[C@@H](c3ccc(Cl)cc3)[C@@H](c3ccc(Cl)cc3)N2C(=O)N2CCNC(=O)C2)c(OC(C)C)c1` [Nutlin-3] + CN(C)S(=O)(=O)c1ccc2c(c1)/C(=C/c1cc3c([nH]1)CCCC3)C(=O)N2 [SU6656] (first compound 0.5 µM, partner dose 2 µM), the cell count in the experiment on A101D is 71%; in the experiment with A2058, 111%; in the experiment with A375 it was 122%.
As to `Cc1cc(Nc2cc(N3CCN(C)CC3)nc(/C=C/c3ccccc3)n2)n[nH]1` + C#Cc1cccc(Nc2ncnc3cc(OCCOC)c(OCCOC)cc23)c1 [erlotinib] (first compound 0.2 µM, partner dose 4 µM), the cell count with A101D worked out at 53.6%; in the experiment with A2058, 55.3%; with A375, 82.4%.
Taken in the same sequence, the figures for `Cn1c(=O)n(-c2ccc(C(C)(C)C#N)cc2)c2c3cc(-c4cnc5ccccc5c4)ccc3ncc21` + CC1(C)NC(=O)N(c2ccc([N+](=O)[O-])c(C(F)(F)F)c2)C1=O [nilutamide] (first compound 0.02 µM, partner dose 5 µM) were 54.9%, 41.1% and 84.4%.
In the case of `Cc1cn(-c2cc(NC(=O)c3ccc(C)c(Nc4nccc(-c5cccnc5)n4)c3)cc(C(F)(F)F)c2)cn1` [nilotinib] + Nc1nc(F)nc2c1ncn2[C@@H]1O[C@H](CO)[C@@H](O)[C@@H]1O [fludarabine] (first compound 1 µM, partner dose 1 µM), the cell count with A101D is 99.5%; in the experiment on A2058 it was 72.3%; in the experiment on A375, 29.9%.
As for `Cn1c(=O)n(-c2ccc(C(C)(C)C#N)cc2)c2c3cc(-c4cnc5ccccc5c4)ccc3ncc21` + CC(C)(C)c1cnc(CSc2cnc(NC(=O)C3CCNCC3)s2)o1 [SNS-032] (first compound 0.02 µM, partner dose 0.05 µM), the cell count with A101D was found to be 79.8%; in the experiment with A2058, 69.9%; with A375, 82%.

Values taken from the supplement of paper PMC4604168 (melanoma cell lines).
